Reference: the BET-seq Pho4 binding data (Le et al. 2018)
This is one part of the list. These are noisy estimates, calculated here from bound and input reads.

target: T1, Pho4 (S. cerevisiae) (UniProt P07270); experiment: relative binding free energy (BET-seq); higher = weaker binding; conditions: reference: library average
T1 sequence: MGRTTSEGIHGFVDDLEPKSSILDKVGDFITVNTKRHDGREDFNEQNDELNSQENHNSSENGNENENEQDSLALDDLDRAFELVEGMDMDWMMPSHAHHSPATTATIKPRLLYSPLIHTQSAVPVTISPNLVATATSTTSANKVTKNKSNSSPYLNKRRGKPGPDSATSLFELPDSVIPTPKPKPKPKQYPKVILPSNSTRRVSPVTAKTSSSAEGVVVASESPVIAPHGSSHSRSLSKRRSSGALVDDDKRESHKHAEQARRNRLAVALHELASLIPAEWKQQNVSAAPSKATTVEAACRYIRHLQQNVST

Sequence | relative binding free energy [kcal/mol]
ATAATCACGTGGGGGC | 0.06
CAGGTCACGTGGGTAT | 0.04
TGACTCACGTGTTTAT | 0.19
AGCATCACGTGTTTGT | 0.05
GTCGACACGTGGCGGT | 0.03
TTGGCCACGTGGAATT | 0.19
TGCGGCACGTGGGAGG | -0.18
AATAGCACGTGAGGAG | 0.23
GGGTTCACGTGCGGTC | 0.33
GTGTCCACGTGCTGGG | 0.04
CGTGTCACGTGCAGTT | 0.13
TTAGGCACGTGGGCGT | -0.2
TGGATCACGTGGAAAT | 0.3
AAGGTCACGTGGCGCG | 0.11
TTGCTCACGTGTGTTA | 0.14
TGATACACGTGTTTGC | -0.05
TGGTTCACGTGAATGA | 0.46
AAGGGCACGTGAGCTG | 0.16
TTGTACACGTGTCTAG | 0
ATGAGCACGTGGCGTT | -0.12
TATAGCACGTGAGGCG | 0.22
AATTTCACGTGATGGC | 0.36
TTATACACGTGGATAT | -0.02

Sequence | relative binding free energy [kcal/mol]
TACTACACGTGTATGG | 0.08
GCGTACACGTGTTGTA | 0.2
GAAAGCACGTGTTGTT | 0.01
ATCGGCACGTGAATTA | 0.41
GTGTACACGTGTATTC | 0.03
TGTTACACGTGGCTAT | 0.04
TAGTTCACGTGAAGGG | 0.32
CGGATCACGTGGAGGT | 0.16
AGGTGCACGTGATAGC | 0.02
TGGAACACGTGGGGAT | -0.02
TTGTACACGTGGGAGA | 0.08
TTTGGCACGTGTCTAG | -0.08
CGTTTCACGTGCGGGC | 0.18
GTTTCCACGTGGGTAT | -0.07
GGCTACACGTGGTGGC | 0.08
TTTTCCACGTGTAATG | 0.1
ATATTCACGTGGCGGT | 0.29
TAAATCACGTGAGGTT | 0.43
TGATACACGTGCCGGG | 0.04
GTATTCACGTGGGGCT | 0.2
TTAGTCACGTGTTACT | 0.18
AAGGTCACGTGAGATA | 0.37
ATCGGCACGTGTGAAG | 0.16

Sequence | relative binding free energy [kcal/mol]
TTGCGCACGTGATTTT | 0.27
TGGCGCACGTGGAGCG | -0.15
GGTAACACGTGCCGGT | 0.11
ATAATCACGTGTAGAA | 0.27
GTATGCACGTGGTGGC | 0
CATGCCACGTGTTGGT | -0.06
TGAGTCACGTGGGAGT | -0.03
CGGTTCACGTGGTTGT | 0.14
TGTAGCACGTGGCGTC | -0.02
CAATTCACGTGTGGTT | 0.17
TGAGGCACGTGTGACG | -0.08
GGGTACACGTGAAGCG | 0.22
TGAGGCACGTGGAGTG | -0.1
TTGCGCACGTGGGATA | -0.22
ATCGACACGTGGTGGA | 0.02
AGGAGCACGTGTGGGA | -0.06
TCTACCACGTGGGGTG | -0.24
TAGCGCACGTGTTTTG | -0.09
GTGGCCACGTGTAGGC | -0.04
GGGTTCACGTGTTTTC | 0.42
TCGGGCACGTGTTTTG | 0.06
TGAAGCACGTGGGCTG | -0.3
GCGCTCACGTGTGATG | 0.52

Sequence | relative binding free energy [kcal/mol]
GTGGTCACGTGCGGTG | 0.17
AGGTGCACGTGGCGGC | -0.04
TGTGTCACGTGTATGC | 0.01
TCGGACACGTGTGTGG | -0.02
AGTGTCACGTGAGAAT | 0.3
TGGCACACGTGGTGAA | 0.08
GGAATCACGTGTGAGA | 0.32
AGGGTCACGTGGAGAA | 0.19
CAGTTCACGTGGTTTA | 0.14
CATGTCACGTGTCGTG | 0.05
ATCAACACGTGTGTTT | 0.04
GTATGCACGTGGTATT | -0.07
TGATCCACGTGTTTGG | 0.07
TATAGCACGTGCGGGG | -0.17
TTGCTCACGTGGGGGG | 0.11
GGTTACACGTGAAATG | 0.49
TTTGTCACGTGTTCAA | 0.01
TTGAGCACGTGTGTGA | -0.09
AGGTTCACGTGCTGGG | 0.24
CTTTTCACGTGTCTTT | 0.26
CTGCTCACGTGAGTGT | 0.24
TCGATCACGTGGGAGT | 0.02
AGGTTCACGTGAGACT | 0.33

Sequence | relative binding free energy [kcal/mol]
TGTCGCACGTGGCGTA | -0.19
GTATTCACGTGTGGTG | 0.28
CGGGTCACGTGGATCG | 0.12
GTACGCACGTGGGGGT | -0.15
TTATTCACGTGGTGCA | 0.05
GGTCGCACGTGTTTAG | 0.04
CGTTTCACGTGCGGTC | 0.26
ATTGGCACGTGTGTCA | -0.17
TTGCACACGTGGTTTG | -0.06
TCTGTCACGTGTGTTG | 0.14
TTGTACACGTGTGGGG | 0.18
TAGTTCACGTGGTTGC | 0.28
CCGGGCACGTGAATGG | 0.16
CGTATCACGTGTTTTG | 0.13
GAGGTCACGTGCGTCG | 0.1
TGCATCACGTGGGTAG | -0.05
AATGACACGTGGGAAT | -0.02
CGGATCACGTGGGGGT | -0.09
ATGGTCACGTGGAGGC | 0.03
CTGAGCACGTGTTTGT | -0.18
GATTGCACGTGATGTG | 0.25
CGGCTCACGTGGCGGT | 0.11
TTGCTCACGTGGGTAA | -0.02
